The text below walks through data of the supplement of paper PMC11369174, “Proteome-scale characterisation of motif-based interactome rewiring by disease mutations” (Molecular Systems Biology, 2024).

Numbering of substitutions follows the chain as printed. Numbers in names are those of the source. The list shows a part of the results. The data scatter; read single values as rough.

Test in all cases: mutation enrichment score (mutant vs wild-type peptide binding to bait); baits are purified protein domains named by gene / domain / UniProt id / residues; peptides come from disordered regions of human proteins; higher = mutation enhances binding relative to wild type
In assay [1] the target is REPS1___Q96D71_226_314. As to conditions: paper call: no_effect, wild-type window: ….
Assay [2] has as its target RUNX1T1-MYND___Q06455_510_559. The settings on record: paper call: no_effect, wild-type window: ….
Assay [3] has as its target T1, SHC_PH__P29353_149_317.
T1 chain: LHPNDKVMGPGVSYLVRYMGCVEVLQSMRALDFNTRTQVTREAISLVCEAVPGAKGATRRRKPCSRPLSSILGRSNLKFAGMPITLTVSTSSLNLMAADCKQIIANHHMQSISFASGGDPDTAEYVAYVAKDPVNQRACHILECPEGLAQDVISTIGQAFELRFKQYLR
The settings on record: paper call: no_effect, wild-type window: ….

The target of assay [4] is T2, PTK2_Focal-AT__Q05397_891_1050.
T2 chain: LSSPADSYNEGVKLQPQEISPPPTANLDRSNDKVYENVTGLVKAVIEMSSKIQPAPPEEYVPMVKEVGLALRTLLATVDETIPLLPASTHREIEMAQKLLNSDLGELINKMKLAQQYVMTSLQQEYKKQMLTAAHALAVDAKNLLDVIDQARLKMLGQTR
The settings on record: number of wild-type / mutant comparisons summed (bounds the score): 5; paper call: no_effect; wild-type window: ….

The target in assay [5] is RAN2-B_Ran-BP1-PH-domain__P49792_2924_3050. As to conditions: wild-type window: ….
Assay [6] has as its target T3, SIN3A_PAH__Q96ST3_295_383.
T3 chain: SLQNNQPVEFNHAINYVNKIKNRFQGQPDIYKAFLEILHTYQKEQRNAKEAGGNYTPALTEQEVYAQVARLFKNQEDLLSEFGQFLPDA
The settings on record: number of wild-type / mutant comparisons summed (bounds the score): 5; paper call: no_effect; wild-type window: ….

For assay [7], the target named is T4, TLN1_PTB__Q9Y490_309_401.
T4 chain: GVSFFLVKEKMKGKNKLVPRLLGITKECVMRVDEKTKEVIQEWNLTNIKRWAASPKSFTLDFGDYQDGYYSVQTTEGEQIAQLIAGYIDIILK
As to conditions: number of wild-type / mutant comparisons summed (bounds the score): 12, wild-type window: ….

Assay [8] deals with T5, TLN2_PTB__Q9Y4G6_312_417.
T5 chain: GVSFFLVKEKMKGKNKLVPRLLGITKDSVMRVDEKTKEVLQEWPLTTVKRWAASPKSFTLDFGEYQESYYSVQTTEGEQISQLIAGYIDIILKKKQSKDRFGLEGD
As to conditions: paper call: no_effect, wild-type window: ….

The target in assay [9] is T6, RDX_FERM_1_P35241_5_295.
T6 chain: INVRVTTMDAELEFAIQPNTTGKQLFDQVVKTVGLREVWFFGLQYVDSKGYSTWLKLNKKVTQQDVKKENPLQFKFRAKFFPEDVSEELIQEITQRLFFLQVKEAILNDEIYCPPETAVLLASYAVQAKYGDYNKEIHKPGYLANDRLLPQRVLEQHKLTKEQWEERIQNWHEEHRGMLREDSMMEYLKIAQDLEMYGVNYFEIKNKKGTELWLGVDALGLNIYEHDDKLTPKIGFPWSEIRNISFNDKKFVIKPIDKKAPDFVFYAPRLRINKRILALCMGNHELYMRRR
The settings on record: number of wild-type / mutant comparisons summed (bounds the score): 6; paper call: no_effect; wild-type window: ….

Assay [10] has as its target USP7_MATH-TRAF__Q93009_53_206. The settings on record: number of wild-type / mutant comparisons summed (bounds the score): 5; paper call: no_effect; wild-type window: ….
Setting [11] is: number of wild-type / mutant comparisons summed (bounds the score): 6.
The mark [12] stands for this setting: number of wild-type / mutant comparisons summed (bounds the score): 12.
The mark [13] stands for this setting: number of wild-type / mutant comparisons summed (bounds the score): 6, paper call: no_effect.
Setting [14] is: number of wild-type / mutant comparisons summed (bounds the score): 6, paper call: diminished.

Chain of USP7_MATH-TRAF__Q93009_53_206 (chain, as listed by the source): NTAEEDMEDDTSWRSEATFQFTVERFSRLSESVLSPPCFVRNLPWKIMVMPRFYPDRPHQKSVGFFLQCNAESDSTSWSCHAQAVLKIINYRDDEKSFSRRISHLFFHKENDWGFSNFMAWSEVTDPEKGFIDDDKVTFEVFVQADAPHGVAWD

B1: S19A S19A (peptide)
chain: MVSKLSQLQTELLAALLESGASKEALIQALGEPGPYLLA
Consider B1, for which the mutation enrichment score in assay [1] (setting [11]) was 1; in [2] (setting [11]) it was -1.

B2: R912W R912W (peptide)
chain: PPEGSEAAEEAAPSDRMPSAWPPSPPLSSWERVSRLMEEDP
B2: the mutation enrichment score in assay [3] (setting [12]) was 2.

B3: Q1699E Q1699E (peptide)
chain: EIVALVTMTPDQRQDVVRLLELRTAEPEVRAKPYTLEEFSY
Turning to B3, the mutation enrichment score in assay [4] was found to be 2.

B4: I27L I27L (peptide)
chain: QLQTELLAALLESGLSKEALLQALGEPGPYLLAGEGPLDKG
For the molecule B4, in assay [2] (setting [11]), the mutation enrichment score is -1.

B5: E127K E127K (peptide)
chain: LKQQVSGLEGVQDDLFWLTFKGKPLEDQLPLGEYGLKPLST
Turning to B5, the mutation enrichment score in [5] (setting [13]) is -5.

B6: R469W R469W (peptide)
chain: TTRIHELKQAKVSTVMDTVGWRLRDSLGRTVDLGLTGNHGV
Consider B6, for which the mutation enrichment score in assay [3] (setting [12]) was -2.

B7: Q901E Q901E (peptide)
chain: NPVFSMNPFSAKPLYTALPPESAFPPATFMPPVQTSIPGLR
As for B7, the mutation enrichment score in [5] (setting [13]) came out at 6.

B8: A399V A399V (peptide)
chain: FRPWSPAVSASEKELSPHLPVLIRDSFYSYKSFETAVAPNV
With B8, in assay [2] (setting [12]), the mutation enrichment score was found to be 2.

B9: R2981H R2981H (peptide)
chain: GISLPEGVDPSFLAALPDDIHREVLQNQLGIRPPTRTAPST
For the molecule B9, in assay [5] (number of wild-type / mutant comparisons summed (bounds the score): 12, paper call: enhanced), the mutation enrichment score was 4.7.

B10: Q119P Q119P (peptide)
chain: SPQSYEELQTQRVMANVRERPRTQSLNEAFAALRKIIPTLP
For B10, the mutation enrichment score in assay [3] (setting [11]) worked out at 1.

B11: G20R G20R (peptide)
chain: MVSKLSQLQTELLAALLESGRSKEALIQALGEPGPYLLAG
On to B11, for which the mutation enrichment score in assay [2] (setting [11]) was -1.

B12: W722S W722S (peptide)
chain: IIGGSDLIAHHARKNTELEESLRQEMEVQNQHAKEESLADD
For B12, the mutation enrichment score in assay [6] was -4.

B13: Y1062C Y1062C (peptide)
chain: DCNNAPLPRALPSTWIENKLCGMSDPNWPGESPVPLTRADG
For the molecule B13, the mutation enrichment score in assay [3] (setting [12]) is -5; in assay [7] (paper call: diminished), -6; in [8] (setting [11]), -6.

B14: R386P R386P (peptide)
chain: LGSHPAPARAQKPGSSGLAAPGLCVLGEDNAPL
For B14, the mutation enrichment score in assay [1] (setting [11]) is -3.

B15: R1758Q R1758Q (peptide)
chain: IAQLEEELEEEQGNMEAMSDQVRKATQQAEQLSNELATERS
For the molecule B15, the mutation enrichment score in assay [3] (setting [11]) was 2.

B16: L11S L11S (peptide)
chain: MAFYSCCWVLLALTWHTSAYSPDQRAQKKGD
On to B16, for which, in assay [4], the mutation enrichment score was 2.

B17: E1457K E1457K (peptide)
chain: SNAAAAALDKKQRNFDKILAKWKQKYEESQSELESSQKEAR
Consider B17, for which the mutation enrichment score in assay [1] (setting [11]) was -3.

B18: D2969N D2969N (peptide)
chain: PSTSSEEEDPLAGISLPEGVNPSFLAALPDDIRREVLQNQL
With B18, in assay [5] (setting [14]), the mutation enrichment score was -6.

B19: R50C R50C (peptide)
chain: VHIVENEIQASIDQIFSRLECLEILSSKEPPNKRQNARLRV
For B19, the mutation enrichment score in assay [4] came to 1.

B20: R355L R355L (peptide)
chain: IDALKGTNDSLMRQMRELEDLFASEASGYQDNIARLEEEIR
With B20, the mutation enrichment score in [4] stood at 3.

B21: Q2322R Q2322R (peptide)
chain: SGSRDSTPSRPAQQPLSRPIRSPGRNSISPGRNGISPPNKL
For B21, the mutation enrichment score in [1] (setting [11]) is -2.

B22: R160Q R160Q (peptide)
chain: NQAKEDRIDPLTLKEMLESIQETAEEPLSIQSLRFLQLELS
Regarding B22, the mutation enrichment score in [4] was -2.

B23: G579E G579E (peptide)
chain: IDMENMFDLLKEETEVKDLPEAGPLRFQKGRIEFENVHFSY
B23: the mutation enrichment score in [9] amounted to 2.

B24: Q251H Q251H (peptide)
chain: ILSKVFDQQSSPMVTRLLQQHNLPQTGEQELESLVLKLSVL
B24: in [1] (setting [12]), the mutation enrichment score is -3.

B25: P2977H P2977H (peptide)
chain: DPLAGISLPEGVDPSFLAALHDDIRREVLQNQLGIRPPTRT
Turning to B25, the mutation enrichment score in assay [5] (setting [14]) was -6.

B26: L1061P L1061P (peptide)
chain: VDCNNAPLPRALPSTWIENKPYGMSDPNWPGESPVPLTRAD
For B26, the mutation enrichment score in assay [3] (setting [12]) was -5; in assay [7] (paper call: diminished), -6; in assay [8] (setting [11]), -6.

B27: R149H R149H (peptide)
chain: ELVSLKDRIERRRAERAEQQHIRNEREKERQNRLAEERARR
With B27, the mutation enrichment score in assay [3] (setting [11]) stood at 1.

B28: A17V A17V (peptide)
chain: MTAWLISLMSIEVLLLAVRHVSLHIEPEEGSLAGGTW
For B28, in [6], the mutation enrichment score came to 2.

B29: W218C W218C (peptide)
chain: QQSNPCPETGAAFPSKATFWCVSGLVWRGYRRPLRPKDLWS
As to B29, the mutation enrichment score in assay [1] (setting [11]) was -2.

B30: D768Y D768Y (peptide)
chain: KQLVEDLDRIVALTSNQEYLYLSMPLDQYSPSFPDTRSSTC
As for B30, the mutation enrichment score in [5] (number of wild-type / mutant comparisons summed (bounds the score): 6, paper call: enhanced) stood at 6.

B31: R1994W R1994W (peptide)
chain: QSTHPSTNPTLVDPTRHLQQWPSGYVHQQAPTYGHGLTSTQ
With B31, in assay [3] (setting [11]), the mutation enrichment score worked out at 1.

B32: M1064T M1064T (peptide)
chain: NNAPLPRALPSTWIENKLYGTSDPNWPGESPVPLTRADGTN
As for B32, the mutation enrichment score in assay [3] (setting [12]) is -5; in [7] (paper call: no_effect), -2.9; in assay [8] (setting [12]), -2.5.

B33: L224P L224P (peptide)
chain: ARDASSSHRGRNVLTAILLLPRELDAEGLEAVQQTVGSRLQ
B33: in assay [4], the mutation enrichment score was -4.

B34: A57P A57P (peptide)
chain: ELNDRLAVYIDRVRSLETENPGLRLRITESEEVVSREVSGI
For B34, in [3] (setting [11]), the mutation enrichment score came out at 1.

B35: P183H P183H (peptide)
chain: SITHYRPVSASRSSLDLSYYHTSSSTSFMSSSSSSSSWLTR
On to B35, for which the mutation enrichment score in [9] is -5; in assay [10] it was 1.5.

B36: P183T P183T (peptide)
chain: B35 chain with H21T
On to B36, for which, in assay [9], the mutation enrichment score is -5.

B37: E661Q E661Q (peptide)
chain: HTTNVAQSIGPTPVCLQLTEQDLETNKLDPKEVDKNLKESS
In the case of B37, in [3] (setting [11]), the mutation enrichment score amounted to 2.

B38: L16P L16P (peptide)
chain: MGTPWRKRKGIAGPGLPDLSPALVLQPRAQVGTMSP
Take B38: in [1] (setting [11]), the mutation enrichment score amounted to 4.

B39: G262E G262E (peptide)
chain: ECLNASLLGGVLRRAKSKNGERSLREKLDKIGLNLPAGRRK
Regarding B39, the mutation enrichment score in [3] (setting [11]) is 1.

B40: R238Q R238Q (peptide)
chain: LPCVRPAPQNPWAQDEWEIPQQSLRLVRKLGSGQFGEVWMG
Take B40: the mutation enrichment score in [1] (setting [11]) is 2.7.

B41: D389Y D389Y (peptide)
chain: TVAYTIPKKQEDSVTELTVEYSGESLEDLMAKMKNM
With B41, the mutation enrichment score in assay [4] was 5.

B42: S190A S190A (peptide)
chain: TSPGSGLILQANFVHSQRREAFLYRSDSDYDLSPKSMSRNS
With B42, the mutation enrichment score in [1] (setting [11]) amounted to 2.

B43: L389F L389F (peptide)
chain: RVENRRAFLKLRRQQQIEREFNGYMEWISKAEEVILAEDET
Consider B43, for which the mutation enrichment score in [4] is -5.

B44: R297K R297K (peptide)
chain: YIHQWEEIFHMTYDLASAVVKIFNLIGMMLLLCHWDGCLQF
On to B44, for which the mutation enrichment score in assay [9] is -3.

B45: D337H D337H (peptide)
chain: EGVRRARERLEQADLILAMLHASDLASPSSCNFLATVVASV
Regarding B45, the mutation enrichment score in assay [1] (setting [11]) was 2.
